Results taken from patent US20230137139A1, “BIOSYNTHESIS OF CANNABINOIDS AND C[…]” (priority 2020, published 2023).

Tested on: CBCA production
Assay: In vivo TS activity assay, Example 4 CBCAS enzymes with and without signal peptides, no pH adjustment
Assay type: cell-based
Conditions: strains with (Y) or without (N) N-terminal and C-terminal signal peptides; no pH adjustment at Day 4; S. cerevisiae
Protocol: An assay to detect TS activity was conducted as follows: each thawed glycerol stock of candidate CBCAS transformants was stamped into a well of YEP+4% dextrose media. Samples were incubated at 30° C. in a shaking incubator for 2 days. A portion of each of the resulting cultures was stamped into a well of YEP+4% galactose+1 mM olivetolic acid (FIG. 1 Structure 6a). Samples were incubated at 20° C. and shaken in a shaking incubator for 4 days. Every 24 hours during those 4 days, 2% galactose and 1 mM olivetolic acid were spiked into the cultures. Sodium citrate buffer adjusted to pH 5.5 was added to each well at a final concentration of 100 mM. Samples were incubated at 20° C. and shaken in a shaking incubator for 2 days. A portion of each of the resulting production cultures was stamped into a well of phosphate buffered saline (PBS). Optical measurements were taken on a plate reader, with absorbance measured at 600 nm and fluorescence at 528 nm with 485 nm excitation. Samples were incubated at 30° C. in a shaking incubator for 2 days. 100% methanol was stamped into the production cultures in half-height deepwell plates. Plates were heat sealed and frozen. Samples were then thawed for 30 min and spun down at 4° C. […] CBCA, THCA, and CBDA production in the samples was quantified via liquid chromatography-mass spectrometry (LC-MS). […]

B1: t861591 (protein)
chain: MAQPPSSAFATCLNDVCGGRSGCVGYPSDILYQINWVDRYNLDINLEPAAVTKPEITEDVAAFIKCASENNVKVQARSGGHSYANHGLGGEDGALVIDLENFQHFSMNWDNWQATIGAGHKLHDVTEKLHDNGGRAISHGTCPGVGLGGHATIGGLGPSSRMWGSCLDHVVEVEVVTADGKIQRASEDENSDLFFALKGAGASFGIITEFVMRTNEEPGDVVEYTFSLTFSRHRDLSPVFEAWQNLISDPDLDRRFGSEFVMHELGAIITGTFFGTEEEFEATGIPDRIPTGKKSIVVNDWLGSVAQQAQDAALWLSDLSTAFTAKSLAFTKDQLLSSESIMDLMDYIDDANRGTLIWFLIFDVTGGRINDVPMNATAYRHRDKVMFCQGYGIGIPTLNGRTREFIEGINSLIRSSVPTNLSTYAGYVDASLESPQDSYWGPNLDALGQVKEDWDPSDLFSNPQSVRPGQKSVVDYFDNRASSNGSEDSSGGSNGGTRDEQGGCWSWRRSGPAFAVFVALFVGFPTPQTSWVQKQNLRDPALDLTDAESPSRTPVVNPNTLTTDTMAKLSRGAPGGKLKMTLGLPVGAVMNCADNSGARNLYIISVKGIGARLNRLPAGGVGDMVMATVKKGKPELRKKVHPAVIVRQSKPWKRFDGVFLYFEDNAGVIVNPKGEMKGSAITGPVGKEAAELWPRIASNSGVVM
modifications: N- and C-terminal signal peptides
Average CBCA: 0.00 µg/L
